# The campaign covered roughly 310,000 compounds. About 18,000 (5.8%) were called active. Inconclusive results, whose numbers are uncertain, are shown with a selection of clear calls. Calls follow the shape of the dose curve; as a rule, active = well fitted inhibition curve with a large enough effect; inconclusive = small, poorly fitted or top-dose-only effect, or another doubt; inactive = no such curve, though single readings can be large or run the other way. No potency is given beside an inconclusive call; the fits are too rough.
# Experiment: Primary qHTS for delayed death inhibitors of the malarial parasite plastid, 48 hour incubation
# Conditions: P. falciparum luciferase growth in erythrocytes; series mostly up to 28.7 µM; activity change, negative = inhibition: at the top concentration
# Procedure, shortened: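 First compound was added to culture medium, then infected red cells at 0.1% parasitemia and 2% hematocrit (final). After incubation at 37 C under 5% CO2, luciferase detection reagent was dispensed and light output recorded.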
# % is scaled to controls: 0 for no effect and ±100 for the full control effect; potency is read from the fitted curve at half-maximal effect; tags tell the direction and shape of the fitted curve.
Compound,Potency,"activity change, negative = inhibition"
Cc1cc(C)c(NC(=O)C[C@H](CC(=O)O)c2cccc3ccccc23)c(C(=O)N2CCC3(CCCC3)CC2)c1,"inconclusive [inhibitor, partial curve]",–
Cc1cccc(N2CCN(CC(=O)N(C3CCCC3)C3CCS(=O)(=O)C3)CC2)c1C (stereo not given),active: 10.4 µM,–
CCSc1nc2c(c(=O)[nH]c(=O)n2C)n1CC(O)COc1ccccc1C (stereo not given),"inconclusive [inhibitor, single point]",–
COc1ccc(C2=NNC(c3ccco3)=Nc3ccc(F)cc32)cc1,"inconclusive [inhibitor, partial curve, poor fit]",–
Cc1ccc(NC(=O)[C@H](NC(=O)[C@@H]2Cc3ccccc3CN2)c2ccccc2)cc1C,–,inactive: -6.85%
CN(C)c1ccc(C(C(=O)NC2CCCCC2)N(Cc2ccco2)C(=O)c2snc(C(N)=O)c2N)cc1 (stereo not given),"inconclusive [inhibitor, partial curve]",–
CC(=O)N(C(C)=O)N1C(=O)/C(=C/c2ccc(Cl)cc2)SC1=S,"inconclusive [inhibitor, full curve, poor fit]",–
c1ccc(-c2nc(-c3ccco3)n3ccccc23)cc1,–,inactive: 0%
Cc1cc(C(=O)CN2C(=O)NC(C)(c3cccc(Br)c3)C2=O)c(C)n1Cc1ccco1 (stereo not given),active: 1.47 µM,–
CC[C@H](CO)NCCN[C@@H](CC)CO,–,inactive: 1.53% [at 12.8 µM]
CCCC(C(=O)NC1CCCC1)N(C(=O)Cn1nnc(-c2ccc(C)o2)n1)c1ccccc1OC (stereo not given),active: 10.4 µM,–
CCCOc1ccccc1OCC(=O)Nc1cc(Cl)ccc1-n1cncn1,active: 11.7 µM,–
Cc1c(N=N/C(C(=O)Nc2ccccc2)=C(/O)c2ccccc2)c(=O)n(-c2ccccc2)n1C,"inconclusive [inhibitor, partial curve, poor fit]",–
Cc1cc(-c2n[nH]c(=S)n2/N=C/C(Br)=C/c2ccccc2)n[nH]1,"inconclusive [inhibitor, single point]",–
CCOC(=O)C1CCCN(CC(O)COCc2ccccc2OC)C1 (stereo not given),"inconclusive [inhibitor, single point]",–
CC(=O)c1c(C(C)=O)c(C)n(-c2nc(-c3ccc(C)c(C)c3)c(C)s2)c1C,active: 11.7 µM,–
O=C(NC1CCCC1)c1cc(-c2ccc(Cl)c(Cl)c2)on1,–,inactive: 9.56%
Fc1ccc(Cn2c(SCc3ccc(F)c(C(F)(F)F)c3)nnc2C(F)(F)F)cc1,"inconclusive [inhibitor, single point]",–
Cc1cc(N/N=C/c2ccc(N(C)C)cc2)nc(NCc2ccccc2)n1,"inconclusive [inhibitor, full curve]",–
CC(OC(=O)c1cccc(-n2cnnn2)c1)C(=O)Nc1cccc(Cl)c1 (stereo not given),–,inactive: -13.9%
O=C(NNc1c(Cl)cccc1Cl)c1ccno1,–,inactive: 8.8%
COc1ccc(NS(=O)(=O)c2cccc3cccnc23)cc1Cl,"inconclusive [inhibitor, partial curve, poor fit]",–
Cc1nn(-c2ccccc2)c2c1C(c1c(C)[nH]c(C#N)c1C)C(C#N)=C(N)O2 (stereo not given),"inconclusive [inhibitor, single point]",–
COc1cc2cc(CN(Cc3nnnn3Cc3ccco3)C3CCCCC3)c(=O)[nH]c2cc1OC,active: 8.28 µM,–

Compound,Potency,"activity change, negative = inhibition"
COc1ccc(-c2csc(N(CCCN(C)C)C(=O)c3ccc(Br)cc3)n2)cc1,"inconclusive [inhibitor, single point]",–
COc1ccc(NS(=O)(=O)c2c(F)cccc2F)cc1S(=O)(=O)N1CCOCC1,"inconclusive [inhibitor, single point]",–
C=CCOc1ccc(CC2C(=O)N(C)C(=O)N(C)C2=O)cc1,active: 3.7 µM,–
Cc1cnc(CNC(=O)C2CCC(=O)N(CCc3cccc(F)c3)C2)[nH]1 (stereo not given),"inconclusive [inhibitor, single point]",–
CN(C)c1ccc(-c2noc(C3CCN(C(=O)Nc4ccc(Cl)cc4)CC3)n2)cc1,"inconclusive [inhibitor, partial curve]",–
Cc1c(Cl)cn2c(=O)cc(CN3CCN(c4ccccc4)CC3)nc2c1Cl,"inconclusive [inhibitor, partial curve, poor fit]",–
COc1ccc(OCCSc2nc3ccccc3c(=O)[nH]2)cc1,"inconclusive [inhibitor, single point]",–
CCc1ccccc1N(CC)C(=O)c1cn(C)c(=O)c2cc(OC)c(OC)cc12,"inconclusive [inhibitor, partial curve, poor fit]",–
O=C(Nc1ccc(Cl)cn1)c1cccc(OCc2ccccc2)c1,–,inactive: 9%
O=C1c2ccccc2C(=O)C12OC2c1ccc(Cl)cc1Cl (stereo not given),"inconclusive [inhibitor, partial curve, poor fit]",–
O=C(Nc1ccc(Cl)cc1)c1cccc(N2C(=O)C3C4CCC(C4)C3C2=O)c1 (stereo not given),"inconclusive [inhibitor, partial curve]",–
CCOC(=O)c1ccc(NC(=O)c2cccc(S(=O)(=O)N3c4ccccc4CC3C)c2)s1 (stereo not given),active: 11.7 µM,–
O=c1[nH]c(=S)[nH]nc1Cc1ccccc1,"inconclusive [inhibitor, single point]",–
COc1ccc(C(=O)c2cn[nH]c2-c2cc(Cl)ccc2O)cc1,"inconclusive [inhibitor, single point]",–
Cc1cc2c3c(c1)C(C)CC(C)(C)N3C(=O)C2=O (stereo not given),–,inactive: -17.9%
C/C(=N\NC(=O)c1c(-c2ccccc2Cl)noc1C)c1cccc(NC(=O)C(C)C)c1,"inconclusive [inhibitor, partial curve, poor fit]",–
CCc1ccccc1NC(=O)CNC(=O)c1cc(C2CC2)nc2c1cnn2C(C)C,"inconclusive [inhibitor, single point]",–
CC(CC(=O)O)CC(=O)Nc1nncs1 (stereo not given),–,inactive: 19.1%
COc1ccc(NC(=O)CSc2nnc(C)s2)cc1S(=O)(=O)N1CCOCC1,–,inactive: -18.1%
COc1ccc(-n2c(SCC(N)=O)nc3nc4c(cc3c2=O)COC(C)(C)C4)cc1,–,inactive: 8.57%
O=C1CCCC(=O)C1=C1SCCCS1,–,inactive: 2.89%
O=C(NCc1ccco1)c1cc2nc(-c3ccc4c(c3)OCO4)cc(C(F)(F)F)n2n1,"inconclusive [inhibitor, single point]",–
CCn1c2ccc(C)cc2c2nnc(NN)nc21,"inconclusive [inhibitor, single point]",–
COc1ccc(-c2nc3ccccc3c(=O)n2NC(=S)N(C)C)cc1,–,inactive: -2.8%

Compound,Potency,"activity change, negative = inhibition"
Cc1cc(O)c2c(c1)OC(C)(C)C1=C2CC(C)CC1 (stereo not given),active: 6.57 µM,–
O=C(CCCCCCC(=O)Nc1ccccc1)NO,active: 0.213 µM,–
COc1cc(NC(=O)CSc2nnc(NC(C)C)s2)cc(OC)c1OC,"inconclusive [inhibitor, partial curve, poor fit]",–
COc1ccc(CN(C)C(=O)c2sccc2-c2ccccc2)c(OC)c1,"inconclusive [inhibitor, single point]",–
CCn1c(SCc2ccccc2)nnc1-c1ccc(S(=O)(=O)N2CCCCC2)cc1,active: 10.4 µM,–
COc1cccc(CNC(=O)CCC2CCCN(c3cc(C)nc(N)n3)C2)c1 (stereo not given),"inconclusive [inhibitor, partial curve, poor fit]",–
Cc1ccccc1CN(C)C(C)C(=O)Nc1ccccc1F (stereo not given),"inconclusive [inhibitor, single point]",–
CCc1ccc2[nH]c(=O)c(CN(Cc3ccc4c(c3)OCO4)C(=O)c3ccco3)cc2c1,"inconclusive [inhibitor, single point]",–
CCn1cc(CNCc2cn(C)nc2-c2ccc(C3CCCCC3)cc2)cn1,"inconclusive [inhibitor, partial curve, poor fit]",–
O=C(COC(=O)C1(c2ccccc2F)CCCC1)N1CCN(C(=O)c2ccco2)CC1,"inconclusive [inhibitor, partial curve, poor fit]",–
C/C(=C\C(=O)Nc1nccs1)c1ccccc1,–,inactive: 105%
CCc1nc(SCC(=O)c2ccccc2)c2ccccc2n1,"inconclusive [inhibitor, single point]",–
CCOc1cc(-c2sc(Nc3cc(C)ccc3OC)n[n+]2-c2ccccc2)ccc1OC,"inconclusive [inhibitor, partial curve, poor fit]",–
Cc1ccc(N=C2NC(=O)/C(=C/c3cn(C)c4ccccc34)S2)cc1C,"inconclusive [inhibitor, single point]",–
Oc1ccc(COCc2ccccc2)c2cccnc12,active: 3.29 µM,–
COC(=O)c1sccc1NC(=O)c1ccc(C)s1,"inconclusive [inhibitor, single point]",–
Cc1ccc(NC(=O)c2ccc(Cl)c(S(=O)(=O)N3CCCCCC3)c2)nc1,"inconclusive [inhibitor, single point]",–
CCN(CC)C(=O)n1cnc(-c2ccccc2)c1-c1ccccc1,–,inactive: -11.9%
COc1ccc(NC(=O)CCN2C(=O)c3ccccc3C2=O)cc1,"inconclusive [inhibitor, partial curve, poor fit]",–
CCOc1ccc(C(c2c(NC(=O)c3ccco3)sc(C)c2C)N2CCOCC2)cc1 (stereo not given),active: 5.22 µM,–
NC(=O)c1cccnc1Nc1cccc([N+](=O)[O-])c1,–,inactive: 94.6%
CCOc1ccc(NS(=O)(=O)c2ccc(C(=O)N(C)CC(=O)Nc3ccc(OC)cc3)cc2)cc1,"inconclusive [inhibitor, single point]",–
